# Measured values as given in the supplement of paper PMC8728848.
# The other results are listed elsewhere or left out.
# B1: Gal 8 (Homo sapiens), O00214_1 (protein)
# chain: MMLSLNNLQNIIYNPVIPFVGTIPDQLDPGTLIVIRGHVPSDADRFQVDLQNGSSMKPRADVAFHFNPRFKRAGCIVCNTLINEKWGREEITYDTPFKREKSFEIVIMVLKDKFQVAVNGKHTLLYGHRIGPEKIDTLGIYGKVNIHSIGFSFSSDLQSTQASSLELTEISRENVPKSGTPQLRLPFAARLNTPMGPGRTVVVKGEVNANAKSFNVDLLAGKSKDIALHLNPRLNIKAFVRNSFLQESWGEEERNITSFPFSPGMYFEMIIYCDVREFKVAVNGVHSLEYKHRFKELSSIDTLEINGDIHLLEVRSW
# Assays:
# Test in all cases: glycan array binding signal (z-score within array); higher = stronger binding
# Conditions in all cases: glycan notation: IUPAC condensed, linker removed
# Fuc(a1-2)Gal = target: Fuc(a1-2)Gal
# Outline: (§1)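 The Consortium for Functional Glycomics database supplied 3228 glycan arrays, of which those lacking an available protein sequence were dropped. The binding signal, a within-array Z-score, was averaged across arrays of the same protein sequence and across linkers. Negative scores can be read as non-binding.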
# Fuc(a1-2)Gal(b1-3)GalNAc = target: Fuc(a1-2)Gal(b1-3)GalNAc
# Outline: as §1
# [1] = target: Fuc(a1-2)Gal(b1-3)GalNAc(a1-3)[Fuc(a1-2)]Gal(b1-4)Glc
# Outline: as §1
# [2] = target: Fuc(a1-2)Gal(b1-3)GalNAc(a1-3)[Fuc(a1-2)]Gal(b1-4)GlcNAc
# Outline: as §1
# [3] = target: Fuc(a1-2)Gal(b1-3)GalNAc(b1-3)Gal
# Outline: as §1
# [4] = target: Fuc(a1-2)Gal(b1-3)GalNAc(b1-3)Gal(a1-4)Gal(b1-4)Glc
# Outline: as §1
# [5] = target: Fuc(a1-2)Gal(b1-3)GalNAc(b1-4)[Neu5Ac(a2-3)]Gal(b1-4)Glc
# Outline: as §1
# Fuc(a1-2)Gal(b1-3)GlcNAc = target: Fuc(a1-2)Gal(b1-3)GlcNAc
# Outline: as §1
# [6] = target: Fuc(a1-2)Gal(b1-3)GlcNAc(b1-2)Man(a1-3)[Fuc(a1-2)Gal(b1-3)GlcNAc(b1-2)Man(a1-6)]Man(b1-4)GlcNAc(b1-4)GlcNAc
# Outline: as §1
# [7] = target: Fuc(a1-2)Gal(b1-3)GlcNAc(b1-2)Man(a1-3)[Fuc(a1-2)Gal(b1-3)GlcNAc(b1-2)Man(a1-6)]Man(b1-4)GlcNAc(b1-4)[Fuc(a1-6)]GlcNAc
# Outline: as §1
# [8] = target: Fuc(a1-2)Gal(b1-3)GlcNAc(b1-3)Gal(b1-4)Glc
# Outline: as §1
# [9] = target: Fuc(a1-2)Gal(b1-3)GlcNAc(b1-3)GalNAc
# Outline: as §1
# [10] = target: Fuc(a1-2)Gal(b1-3)GlcNAc(b1-3)[Fuc(a1-2)Gal(b1-3)GlcNAc(b1-6)]GalNAc
# Outline: as §1
# [11] = target: Fuc(a1-2)Gal(b1-3)GlcNAc(b1-3)[Fuc(a1-3)[Gal(b1-4)]GlcNAc(b1-6)]Gal(b1-4)Glc
# Outline: as §1
# [12] = target: Fuc(a1-2)Gal(b1-3)GlcNAc(b1-3)[Gal(b1-4)GlcNAc(b1-6)]Gal(b1-4)Glc
# Outline: as §1
# [13] = target: Fuc(a1-2)Gal(b1-3)GlcNAc(b1-3)[Neu5Ac(a2-6)Gal(b1-4)GlcNAc(b1-6)]Gal(b1-4)Glc
# Outline: as §1
# [14] = target: Fuc(a1-2)Gal(b1-3)GlcNAc6S
# Outline: as §1
# [15] = target: Fuc(a1-2)Gal(b1-3)[Fuc(a1-4)]GlcNAc
# Outline: as §1
# [16] = target: Fuc(a1-2)Gal(b1-3)[Fuc(a1-4)]GlcNAc(b1-2)Man(a1-3)[Fuc(a1-2)Gal(b1-3)[Fuc(a1-4)]GlcNAc(b1-2)Man(a1-6)]Man(b1-4)GlcNAc(b1-4)GlcNAc
# Outline: as §1
# [17] = target: Fuc(a1-2)Gal(b1-3)[Fuc(a1-4)]GlcNAc(b1-2)Man(a1-6)[Fuc(a1-2)Gal(b1-3)[Fuc(a1-4)]GlcNAc(b1-2)Man(a1-3)]Man(b1-4)GlcNAc(b1-4)[Fuc(a1-6)]GlcNAc
# Outline: as §1
# [18] = target: Fuc(a1-2)Gal(b1-3)[Fuc(a1-4)]GlcNAc(b1-3)[Fuc(a1-3)[Gal(b1-4)]GlcNAc(b1-6)]Gal(b1-4)Glc
# Outline: as §1
# [19] = target: Fuc(a1-2)Gal(b1-3)[Fuc(a1-4)]GlcNAc(b1-3)[Gal(b1-4)GlcNAc(b1-6)]Gal(b1-4)Glc
# Outline: as §1
# Fuc(a1-2)Gal(b1-4)Glc = target: Fuc(a1-2)Gal(b1-4)Glc
# Outline: as §1
# Fuc(a1-2)Gal(b1-4)Glc6S = target: Fuc(a1-2)Gal(b1-4)Glc6S
# Outline: as §1
# Fuc(a1-2)Gal(b1-4)GlcNAc = target: Fuc(a1-2)Gal(b1-4)GlcNAc
# Outline: as §1
# [20] = target: Fuc(a1-2)Gal(b1-4)GlcNAc(b1-2)Man
# Outline: as §1
# [21] = target: Fuc(a1-2)Gal(b1-4)GlcNAc(b1-2)Man(a1-3)[Fuc(a1-2)Gal(b1-4)GlcNAc(b1-2)Man(a1-6)]Man(b1-4)GlcNAc(b1-4)GlcNAc
# Outline: as §1
# [22] = target: Fuc(a1-2)Gal(b1-4)GlcNAc(b1-2)Man(a1-3)[Fuc(a1-2)Gal(b1-4)GlcNAc(b1-2)Man(a1-6)]Man(b1-4)GlcNAc(b1-4)[Fuc(a1-6)]GlcNAc
# Outline: as §1
# [23] = target: Fuc(a1-2)Gal(b1-4)GlcNAc(b1-2)[Fuc(a1-2)Gal(b1-4)GlcNAc(b1-4)]Man(a1-3)[Fuc(a1-2)Gal(b1-4)GlcNAc(b1-2)Man(a1-6)]Man(b1-4)GlcNAc(b1-4)GlcNAc
# Outline: as §1
# [24] = target: Fuc(a1-2)Gal(b1-4)GlcNAc(b1-3)Gal(b1-4)GlcNAc
# Outline: as §1
binder,measurement,setting,value
B1,glycan array binding signal (z-score),Fuc(a1-2)Gal,-0.233
same,glycan array binding signal (z-score),Fuc(a1-2)Gal(b1-3)GalNAc,-0.23
same,glycan array binding signal (z-score),[1],1.91
same,glycan array binding signal (z-score),[2],1.53
same,glycan array binding signal (z-score),[3],-0.194
same,glycan array binding signal (z-score),[4],-0.241
same,glycan array binding signal (z-score),[5],-0.227
same,glycan array binding signal (z-score),Fuc(a1-2)Gal(b1-3)GlcNAc,0.18
same,glycan array binding signal (z-score),[6],0.466
same,glycan array binding signal (z-score),[7],-0.127
same,glycan array binding signal (z-score),[8],0.434
same,glycan array binding signal (z-score),[9],-0.254
same,glycan array binding signal (z-score),[10],-0.102
same,glycan array binding signal (z-score),[11],0.221
same,glycan array binding signal (z-score),[12],0.626
same,glycan array binding signal (z-score),[13],0.368
same,glycan array binding signal (z-score),[14],1.04
same,glycan array binding signal (z-score),[15],-0.224
same,glycan array binding signal (z-score),[16],0.079
same,glycan array binding signal (z-score),[17],-0.138
same,glycan array binding signal (z-score),[18],-0.249
same,glycan array binding signal (z-score),[19],-0.224
same,glycan array binding signal (z-score),Fuc(a1-2)Gal(b1-4)Glc,-0.139
same,glycan array binding signal (z-score),Fuc(a1-2)Gal(b1-4)Glc6S,-0.083
same,glycan array binding signal (z-score),Fuc(a1-2)Gal(b1-4)GlcNAc,-0.207
same,glycan array binding signal (z-score),[20],-0.266
same,glycan array binding signal (z-score),[21],0.822
same,glycan array binding signal (z-score),[22],-0.152
same,glycan array binding signal (z-score),[23],-1.24
same,glycan array binding signal (z-score),[24],0.433
